# From the supplement of paper PMC4604168 (melanoma cell lines)
# The list shows a part of the results. Many values rest on one well or one pass, so single values are uncertain.
# Experiments:
# Assay in all cases: cell count relative to DMSO control; melanoma cells; higher = more viable cells
# Settings in all cases: library dose: standard library concentration; 72 h
# A101D = tested on: A101D
# A2058 = tested on: A2058
# A375 = tested on: A375
# 501Mel = tested on: 501Mel
# 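Also: cells treated in 1,536-well plates, then fixed and DAPI-stained, with nuclei counted from automated high-throughput microscope images.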
Compound,cell count (A101D) [%],cell count (A2058) [%],cell count (A375) [%],cell count (501Mel) [%]
"NC(=O)c1ccc(N(C(N)=O)c2c(F)cccc2F)nc1-c1ccc(F)cc1F + COCC[n+]1c2c(n(Cc3cnccn3)c1C)C(=O)c1ccccc1C2=O [YM155] (first compound 2 µM, partner dose 0.002 µM)",61,22.6,106,–
"CCCCCCCCc1ccc(CCC(N)(CO)CO)cc1 [fingolimod] + OCCn1cc(-c2cnc3nnn(Cc4ccc5ncccc5c4)c3n2)cn1 [PF04217903] (first compound 10 µM, partner dose 5 µM)",9.01,5.71,79.1,–
"NC(=O)c1ccc(N(C(N)=O)c2c(F)cccc2F)nc1-c1ccc(F)cc1F + Cc1cc([N+](=O)[O-])ccc1NS(=O)(=O)c1cc(Cl)ccc1Cl [FH535] (first compound 2 µM, partner dose 5 µM)",72.5,77.7,69.6,84.3
"NC(=O)c1ccc(N(C(N)=O)c2c(F)cccc2F)nc1-c1ccc(F)cc1F + Nc1nc(F)nc2c1ncn2[C@@H]1O[C@H](CO)[C@@H](O)[C@@H]1O [fludarabine] (first compound 2 µM, partner dose 1 µM)",92.4,87,41.8,–
"CCCCCCCCc1ccc(CCC(N)(CO)CO)cc1 [fingolimod] + CO[C@H]1C[C@@H]2CC[C@@H](C)[C@@](O)(O2)C(=O)C(=O)N2CCCC[C@H]2C(=O)O[C@H]([C@H](C)C[C@@H]2CC[C@@H](OCCO)[C@H](OC)C2)CC(=O)[C@H](C)/C=C(\C)[C@@H](O)[C@@H](OC)C(=O)[C@H](C)C[C@H](C)/C=C/C=C/C=C/1C [everolimus] (first compound 10 µM, partner dose 0.1 µM)",7.2,3.81,51.6,–
"CC(C)(C)c1cnc(CSc2cnc(NC(=O)C3CCNCC3)s2)o1 + Cc1cc([N+](=O)[O-])ccc1NS(=O)(=O)c1cc(Cl)ccc1Cl [FH535] (first compound 0.05 µM, partner dose 5 µM)",66,79.7,86.6,75.1
"CCCCCCCCc1ccc(CCC(N)(CO)CO)cc1 [fingolimod] + Cc1cc([N+](=O)[O-])ccc1NS(=O)(=O)c1cc(Cl)ccc1Cl [FH535] (first compound 10 µM, partner dose 5 µM)",6.67,37.4,72.6,0.855
"NC(=O)c1ccc(N(C(N)=O)c2c(F)cccc2F)nc1-c1ccc(F)cc1F + C[C@]1(c2nc3c(C(N)=O)cccc3[nH]2)CCCN1 [Veliparib] (first compound 2 µM, partner dose 7 µM)",84.1,74.2,86.7,–
"Cc1ccc(NC(=O)c2cccc(N(C)C)c2)cc1NC(=O)c1ccc(O)cc1 + CC(C)CCN1c2nc(Nc3cc(F)c(O)c(F)c3)ncc2N(C)C(=O)C1C [BID1870] (first compound 10 µM, partner dose 1 µM)",53.6,87.1,95.5,65.7
"NC(=O)c1ccc(N(C(N)=O)c2c(F)cccc2F)nc1-c1ccc(F)cc1F + CN1CCN(c2ccc3nc(-c4c(N)c5c(F)cccc5[nH]c4=O)[nH]c3c2)CC1 [Dovitinib] (first compound 2 µM, partner dose 0.5 µM)",64.2,30.7,83.3,–
"NC(=O)c1ccc(N(C(N)=O)c2c(F)cccc2F)nc1-c1ccc(F)cc1F + O=c1cc(-c2cccc3c2Sc2ccccc2S3)oc(N2CCOCC2)c1 [KU55933] (first compound 2 µM, partner dose 5 µM)",74,100,132,80.6
"CCCCCCCCc1ccc(CCC(N)(CO)CO)cc1 [fingolimod] + Nc1nc(F)nc2c1ncn2[C@@H]1O[C@H](CO)[C@@H](O)[C@@H]1O [fludarabine] (first compound 10 µM, partner dose 1 µM)",5.11,4.65,9.12,–
"NC(=O)c1ccc(N(C(N)=O)c2c(F)cccc2F)nc1-c1ccc(F)cc1F + CC(=O)O[C@@]12CO[C@@H]1C[C@H](O)[C@@]1(C)C(=O)[C@H](O)C3=C(C)[C@@H](OC(=O)[C@H](O)[C@@H](NC(=O)OC(C)(C)C)c4ccccc4)C[C@@](O)([C@@H](OC(=O)c4ccccc4)[C@H]21)C3(C)C [Docetaxel] (first compound 2 µM, partner dose 0.0005 µM)",41.6,9.8,66.4,–
"CC(C)(C)c1cnc(CSc2cnc(NC(=O)C3CCNCC3)s2)o1 + COc1cc2ncnc(Nc3ccc(Oc4ccccc4)cc3)c2cc1OC [SrcI1] (first compound 0.05 µM, partner dose 10 µM)",34.9,75.4,115,–
"CCCCCCCCc1ccc(CCC(N)(CO)CO)cc1 [fingolimod] + CC(=O)O[C@@]12CO[C@@H]1C[C@H](O)[C@@]1(C)C(=O)[C@H](O)C3=C(C)[C@@H](OC(=O)[C@H](O)[C@@H](NC(=O)OC(C)(C)C)c4ccccc4)C[C@@](O)([C@@H](OC(=O)c4ccccc4)[C@H]21)C3(C)C [Docetaxel] (first compound 10 µM, partner dose 0.0005 µM)",13.4,6.29,68,–
"CCc1ccc(CCOc2ccc(CC3SC(=O)NC3=O)cc2)nc1 (stereo not drawn) [pioglitazone] + COc1cc2ncnc(Nc3ccc(Oc4ccccc4)cc3)c2cc1OC [SrcI1] (first compound 10 µM, partner dose 10 µM)",68.4,90.6,160,70.6
"CN(NC(=O)CC(=O)NN(C)C(=S)c1ccccc1)C(=S)c1ccccc1 + CCN(CC)CCCCNc1ncc2cc(-c3cc(OC)cc(OC)c3)c(NC(=O)NC(C)(C)C)nc2n1 [PD173074] (first compound 0.03 µM, partner dose 0.5 µM)",64.7,13.3,101,9.19
"Cc1ccc(NC(=O)c2cccc(N(C)C)c2)cc1NC(=O)c1ccc(O)cc1 + CN(C)S(=O)(=O)c1ccc2c(c1)/C(=C/c1cc3c([nH]1)CCCC3)C(=O)N2 [SU6656] (first compound 10 µM, partner dose 2 µM)",61.5,89.7,129,–
"CCCCCCCCc1ccc(CCC(N)(CO)CO)cc1 [fingolimod] + O=C(Nc1ccccc1)c1cc([N+](=O)[O-])ccc1Cl [GW9662] (first compound 10 µM, partner dose 10 µM)",5.72,1.93,46.8,0.329
"NC(=O)c1ccc(N(C(N)=O)c2c(F)cccc2F)nc1-c1ccc(F)cc1F + CS(=O)(=O)c1ccc(C(=O)Nc2ccc(Cl)c(-c3ccccn3)c2)c(Cl)c1 [vismodegib] (first compound 2 µM, partner dose 5 µM)",126,143,106,–
"CCc1ccc(CCOc2ccc(CC3SC(=O)NC3=O)cc2)nc1 (stereo not drawn) [pioglitazone] + N#Cc1c(O)c2c(-c3ccc(-c4ccccc4O)cc3)csc2[nH]c1=O [A769662] (first compound 10 µM, partner dose 10 µM)",105,97,133,133
"NC(=O)c1ccc(N(C(N)=O)c2c(F)cccc2F)nc1-c1ccc(F)cc1F + OCCn1cc(-c2cnc3nnn(Cc4ccc5ncccc5c4)c3n2)cn1 [PF04217903] (first compound 2 µM, partner dose 5 µM)",95.6,89.2,105,–
"CN(NC(=O)CC(=O)NN(C)C(=S)c1ccccc1)C(=S)c1ccccc1 + N#Cc1c(O)c2c(-c3ccc(-c4ccccc4O)cc3)csc2[nH]c1=O [A769662] (first compound 0.03 µM, partner dose 10 µM)",42.2,19.7,131,–
"Cc1ccc(NC(=O)c2cccc(N(C)C)c2)cc1NC(=O)c1ccc(O)cc1 + C[C@@H]1CCN(C(=O)CC#N)C[C@@H]1N(C)c1ncnc2[nH]ccc12 [CP690550] (first compound 10 µM, partner dose 5 µM)",92.6,79.2,114,–
"CN(NC(=O)CC(=O)NN(C)C(=S)c1ccccc1)C(=S)c1ccccc1 + COC(=O)c1sccc1S(=O)(=O)Nc1ccc(Nc2ccccc2)cc1OC [GSK0660] (first compound 0.03 µM, partner dose 5 µM)",57.8,16.6,71.2,13.1
"NC(=O)c1ccc(N(C(N)=O)c2c(F)cccc2F)nc1-c1ccc(F)cc1F + Cc1nc(Nc2ncc(C(=O)Nc3c(C)cccc3Cl)s2)cc(N2CCN(CCO)CC2)n1 [dasatanib] (first compound 2 µM, partner dose 0.02 µM)",86.5,80,85.4,–
"COc1cc2c(Oc3ccc4[nH]c(C)cc4c3F)ncnc2cc1OCCCN1CCCC1 [cediranib] + CCc1ccc(CCOc2ccc(CC3SC(=O)NC3=O)cc2)nc1 [pioglitazone] (first compound 2 µM, partner dose 10 µM)",100,84.2,108,65.9
"CCCCCCCCc1ccc(CCC(N)(CO)CO)cc1 [fingolimod] + CC(C)C[C@H](NC(=O)[C@H](Cc1ccccc1)NC(=O)c1cnccn1)B(O)O [Bortezomib] (first compound 10 µM, partner dose 0.005 µM)",6.38,4.5,47.6,–
"CC(C)(C)c1cnc(CSc2cnc(NC(=O)C3CCNCC3)s2)o1 + C[C@@H]1CCN(C(=O)CC#N)C[C@@H]1N(C)c1ncnc2[nH]ccc12 [CP690550] (first compound 0.05 µM, partner dose 5 µM)",73.6,76,92.1,–
